The other results are listed elsewhere or left out.
B1: PhoQ; a variant is named by its letters at X, in order, P23837 (parent)
chain: MKKLLRLFFPLSLRVRFLLATAAVVLVLSLAYGMVALIGYSVSFDKTTFRLLRGESNLFYTLAKWENNKLHVELPENIDKQSPTMTLIYDENGQLLWAQRDVPWLMKMIQPDWLKSNGFHEIEADVNDTSLLLSGDHSIQQQLQEVREDDDDAEMTHSVAVNVYPATSRMPKLTIVVVDTIPVELKSSYMVWSWFIYVLSANLLLVIPLLWVAAWWSLRPIEALAKEVRELEEHNRELLNPATTRELTSLVRNLNRLLKSERERYDKYRTTLTDLTHSLKTPLXXLQXXLRSLRSEKMSVSDAEPVMLEQISRISQQIGYYLHRASMRGGTLLSRELHPVAPLLDNLTSALNKVYQRKGVNISLDISPEISFVGEQNDFVEVMGNVLDNACKYCLEFVEISARQTDEHLYIVVEDDGPGIPLSKREVIFDRGQRVDTLRPGQGVGLAVAREITEQYEGKIVAGESMLGGARMEVIFGRQHSAPKDE

Variants of: B1
Test: enrichment ratio after two sorts for PhoP signalling (ratio (wild type AVST 3.29)); higher = more functional
Details: with PhoP (E. coli)

Point of comparison: GDVC, enrichment ratio 7.92. Against it:
- IWGM — lower, ≤ 0.25
- TDYS — lower, ≤ 0.25
- VKKE — lower, ≤ 0.25
- VIQL — lower, ≤ 0.25
- HKMN — lower, ≤ 0.25
- HFDG — lower, ≤ 0.25
- DKLL — lower, 0.415
- KDAL — lower, ≤ 0.25
- DCYF — lower, ≤ 0.25
- PVIG — lower, ≤ 0.25
- HYDD — lower, ≤ 0.25
- SAAK — lower, 5.94
- ASHG — lower, ≤ 0.25
- DPAD — lower, ≤ 0.25
- GKYE — lower, ≤ 0.25
- WRVD — lower, ≤ 0.25
- LINL — lower, ≤ 0.25
- CSNF — higher, 10.8
- QQRM — lower, ≤ 0.25
- MDRW — lower, ≤ 0.25
- FDCW — lower, ≤ 0.25
- PTWF — lower, ≤ 0.25
- PWCG — lower, ≤ 0.25
- HEGY — lower, ≤ 0.25
- WYTI — lower, ≤ 0.25
- QESL — lower, 0.967
- LEWV — higher, 11.9
- AGKM — lower, ≤ 0.25
- RLEG — lower, ≤ 0.25
- ASTF — higher, 11.8
- VQKW — lower, ≤ 0.25
- QLLD — lower, ≤ 0.25
- QPHI — lower, ≤ 0.25
- KALW — lower, ≤ 0.25
- GNAC — higher, 12.5
- FCNF — lower, ≤ 0.25
- DMKV — lower, ≤ 0.25
- LYRW — lower, ≤ 0.25
- EDYE — lower, ≤ 0.25
- SIED — lower, ≤ 0.25
- MTRA — lower, ≤ 0.25
- GWPY — lower, ≤ 0.25
- KSEC — lower, ≤ 0.25
- AQYE — lower, ≤ 0.25
- ETGH — lower, ≤ 0.25
- LWDY — lower, ≤ 0.25
- QCYT — lower, ≤ 0.25
- IRPY — lower, ≤ 0.25
- MLFG — lower, ≤ 0.25
- HYSN — lower, ≤ 0.25
- YQVY — lower, ≤ 0.25
- VVVI — lower, ≤ 0.25
- LHQI — lower, ≤ 0.25
- QTRS — lower, ≤ 0.25
- AKDV — lower, ≤ 0.25
- TQHI — lower, 3.97
- LNID — lower, ≤ 0.25
- RHHR — lower, ≤ 0.25
- YKGC — lower, ≤ 0.25
- SVNI — lower, ≤ 0.25
- FKIY — lower, ≤ 0.25
- NKHH — lower, ≤ 0.25
- TPLC — lower, ≤ 0.25
- IWQL — lower, ≤ 0.25
- DRYF — lower, ≤ 0.25
- SHNL — lower, 7.36
- TDYV — lower, ≤ 0.25
- FNIS — lower, ≤ 0.25
- QFAN — lower, ≤ 0.25
- EGKF — lower, ≤ 0.25
- DNNL — lower, ≤ 0.25
- SPVH — lower, ≤ 0.25
- GSKK — lower, ≤ 0.25
- LESE — lower, ≤ 0.25
- YSSF — lower, ≤ 0.25
- AYIL — lower, 1.01
- FIIR — lower, ≤ 0.25
- VLAK — lower, ≤ 0.25
- AVAL — higher, 11
- KMCV — lower, ≤ 0.25
- TMHS — lower, 1.08
- NEPG — lower, ≤ 0.25
- KICW — lower, ≤ 0.25
- LWEI — lower, ≤ 0.25
- IVPN — lower, ≤ 0.25
- DNTW — lower, ≤ 0.25
- LPIT — lower, ≤ 0.25
- TGLF — higher, 9.7
- PMFW — lower, ≤ 0.25
- SFYY — lower, ≤ 0.25
- PAQY — lower, ≤ 0.25
- LAEL — lower, ≤ 0.25
- RWDH — lower, ≤ 0.25
- THIK — lower, ≤ 0.25
- EAQG — lower, ≤ 0.25
- KNDS — lower, ≤ 0.25
- YDGR — lower, ≤ 0.25
- FWHQ — lower, 0.747
- TCTH — lower, 3.96
- TMWF — lower, ≤ 0.25
- DRLV — lower, ≤ 0.25
- MTAR — lower, ≤ 0.25
- LGFG — lower, 0.491
- KAME — lower, ≤ 0.25
- IFEN — lower, ≤ 0.25
- KHMH — lower, ≤ 0.25
- VCID — lower, ≤ 0.25
- DNVH — lower, ≤ 0.25
- RDVK — lower, ≤ 0.25
- YVSY — lower, 0.492
- TVCC — lower, 6.39
- HRQK — lower, ≤ 0.25
- MHSW — lower, ≤ 0.25
- QTLL — lower, ≤ 0.25
- QQCG — higher, 10.3
- QYKC — lower, ≤ 0.25
- AIPK — lower, ≤ 0.25
- RWAA — lower, ≤ 0.25
- HLHM — lower, ≤ 0.25
- SHMH — lower, 3
- ELRH — lower, ≤ 0.25
- RSYR — lower, ≤ 0.25
- APIN — lower, ≤ 0.25
- KRWT — lower, ≤ 0.25
- VAQD — lower, ≤ 0.25
- GPMD — lower, ≤ 0.25
- NRQL — lower, ≤ 0.25
- KLRH — lower, ≤ 0.25
- SGWY — lower, ≤ 0.25
- VPID — lower, ≤ 0.25
- YFSM — lower, ≤ 0.25
- LCLE — lower, ≤ 0.25
- FFDW — lower, ≤ 0.25
- LKTM — lower, ≤ 0.25
- FNMT — lower, ≤ 0.25
- EKIS — lower, ≤ 0.25
- TMMY — lower, 0.451
- PKCY — lower, ≤ 0.25
- DSSK — lower, ≤ 0.25
- GMTL — higher, 15.2
- LDMW — lower, ≤ 0.25
- MLMF — lower, ≤ 0.25
- AEIP — lower, ≤ 0.25
- EFMK — lower, ≤ 0.25
- KGDI — lower, ≤ 0.25
- LSRW — lower, ≤ 0.25
- MAYK — lower, ≤ 0.25
- GFSV — lower, 1.49
- VQMR — lower, ≤ 0.25
- FGKY — lower, ≤ 0.25
- NIDF — lower, ≤ 0.25
- QEES — lower, ≤ 0.25
- PYKS — lower, ≤ 0.25
- PIVK — lower, ≤ 0.25
- HKTA — lower, ≤ 0.25
- FLTD — lower, ≤ 0.25
- GGHE — lower, ≤ 0.25
- KDWI — lower, ≤ 0.25
- VTCH — lower, ≤ 0.25
- DFSQ — lower, ≤ 0.25
- KAKN — lower, ≤ 0.25
- YMPT — lower, ≤ 0.25
- HFLG — lower, ≤ 0.25
- TNIP — lower, ≤ 0.25
- QWYP — lower, ≤ 0.25
- PLES — lower, ≤ 0.25
- WATF — lower, ≤ 0.25
- DESI — lower, ≤ 0.25
- QTAD — lower, ≤ 0.25
- SFVH — lower, ≤ 0.25
- HCRS — lower, ≤ 0.25
- KYMH — lower, ≤ 0.25
- RLYW — lower, ≤ 0.25
- IGDT — lower, ≤ 0.25
- FSST — lower, ≤ 0.25
- HRTF — lower, ≤ 0.25
- HYGR — lower, ≤ 0.25
- GCNL — lower, ≤ 0.25
- YDPA — lower, ≤ 0.25
- DMKD — lower, ≤ 0.25
- WHNP — lower, ≤ 0.25
- KRSN — lower, ≤ 0.25
- QRPI — lower, ≤ 0.25
- NWNW — lower, ≤ 0.25
- LQNW — lower, ≤ 0.25
- TNPH — lower, ≤ 0.25
- TMVD — lower, ≤ 0.25
- FYYE — lower, ≤ 0.25
- LAAS — lower, ≤ 0.25
- GHTI — lower, ≤ 0.25
- DAFW — lower, ≤ 0.25
- NPHS — lower, ≤ 0.25
- LLIE — lower, ≤ 0.25
- VCSS — lower, 0.263
- MCKL — lower, ≤ 0.25
- YLQH — lower, ≤ 0.25
- IIWD — lower, ≤ 0.25
- FYTL — lower, ≤ 0.25
- FQRM — lower, 1.38
- LLWG — lower, ≤ 0.25
- DMKH — lower, ≤ 0.25
- RQQF — lower, ≤ 0.25
- AHWN — lower, ≤ 0.25
- VQHY — lower, ≤ 0.25
- KWSL — lower, ≤ 0.25
- KNDV — lower, ≤ 0.25
- LESG — lower, ≤ 0.25
- SGKF — lower, ≤ 0.25
- MIVR — lower, ≤ 0.25
- RIRG — lower, ≤ 0.25
- ITCW — lower, ≤ 0.25
- YCTV — lower, 0.338
- QLDC — lower, ≤ 0.25
- AGHV — lower, ≤ 0.25
- TTGV — lower, 2.49
- ARAT — lower, ≤ 0.25
- GVRK — lower, ≤ 0.25
- PFQA — lower, ≤ 0.25
- QNHK — lower, ≤ 0.25
- QPPM — lower, ≤ 0.25
- KKRV — lower, ≤ 0.25
- PAWT — lower, ≤ 0.25
- AASK — lower, 0.881
- QTTG — lower, ≤ 0.25
- NSWV — lower, ≤ 0.25
- YKHH — lower, ≤ 0.25
- YMVF — lower, ≤ 0.25
- MDVD — lower, ≤ 0.25
- IRTH — lower, ≤ 0.25
- FQYI — lower, ≤ 0.25
- NFGP — lower, ≤ 0.25
- YAMQ — lower, 0.285
- QCRR — lower, ≤ 0.25
- GEDP — lower, ≤ 0.25
- ACYA — lower, ≤ 0.25
- DMIS — lower, ≤ 0.25
- GTES — lower, ≤ 0.25
- MQDS — lower, ≤ 0.25
- WTGK — lower, ≤ 0.25
- AVQH — lower, ≤ 0.25
- IFAK — lower, ≤ 0.25
- PFWA — lower, ≤ 0.25
- GHGP — lower, ≤ 0.25
- CRKI — lower, ≤ 0.25
- YSLG — lower, 7.21
- RHWY — lower, ≤ 0.25
- SGVS — higher, 13
- ASIW — lower, ≤ 0.25
- SNFH — lower, ≤ 0.25
- WDAE — lower, ≤ 0.25
- RYVA — lower, ≤ 0.25
- FMMG — lower, ≤ 0.25
- NSRM — lower, ≤ 0.25
- SDGT — lower, ≤ 0.25
- LHEM — lower, ≤ 0.25
- MFVV — lower, ≤ 0.25
- ISMY — lower, ≤ 0.25
- NRGH — lower, ≤ 0.25
- HHSN — lower, ≤ 0.25
- IDCY — lower, ≤ 0.25
- HFCL — lower, ≤ 0.25
- SIFV — lower, ≤ 0.25
- GDQG — lower, ≤ 0.25
- KQHC — lower, ≤ 0.25
- GGLS — higher, 10.6
- QVRV — lower, ≤ 0.25
- WDPR — lower, ≤ 0.25
- QDPC — lower, ≤ 0.25
- LGSP — lower, ≤ 0.25
- EGYV — lower, ≤ 0.25
- RHGH — lower, ≤ 0.25
- FDNK — lower, ≤ 0.25
- RPTI — lower, ≤ 0.25
- DFKH — lower, ≤ 0.25
- FKDN — lower, ≤ 0.25
- FHQV — lower, ≤ 0.25
- HDRC — lower, ≤ 0.25
- GKDP — lower, ≤ 0.25
- VTPH — lower, ≤ 0.25
- TFWI — lower, ≤ 0.25
- VWLF — lower, ≤ 0.25
- HTAY — lower, ≤ 0.25
- HDIQ — lower, ≤ 0.25
- YDQT — lower, ≤ 0.25
- PCFF — lower, ≤ 0.25
- MDSM — lower, ≤ 0.25
- ERDQ — lower, ≤ 0.25
- DRKN — lower, ≤ 0.25
- TGFP — lower, ≤ 0.25
- MANF — lower, ≤ 0.25
- DCFF — lower, ≤ 0.25
- QKMA — lower, ≤ 0.25
- FPKD — lower, ≤ 0.25
- NAPV — lower, ≤ 0.25
- GFNL — lower, 0.304
- FWIK — lower, ≤ 0.25
- YAAP — lower, ≤ 0.25
- ETTI — lower, ≤ 0.25
- MAWV — lower, ≤ 0.25
- NKKY — lower, ≤ 0.25
- DPNR — lower, ≤ 0.25
- AKDG — lower, ≤ 0.25
- KMYL — lower, ≤ 0.25
- AMVM — lower, 5.51
- WRKW — lower, ≤ 0.25

Source: a collection of fitness landscapes (doi:10.1126/science.1257360)
